# From PubChem BioAssay (NCI)
# Where a structure was tested more than once in an assay, its records may differ in their call.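 Compound tested at a single concentration for 48 hours in 96-well plates; a percent growth value below 10 was scored as active.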 The source holds more than one record for some entries. Only these are listed. An entry can have further records. These are repeated runs of one drug, at the concentration stated with the values; one value stands for one run. Additions like (4×) say how often a value occurs here.
# How the values were obtained:
# A549/ATCC NSCLC = experiment: NCI-60 one-dose screen, 48 h (100 = growth as untreated, 0 = no growth, -100 = all killed); details: 25 µM
# COLO 205 colon = experiment: as above; details: 0.25 µM
smiles,measurement,setting,value
COc1cccc2c1C(=O)c1c(O)c3c(c(O)c1C2=O)C[C@@](O)(C(=O)CO)C[C@@H]3OC1CC(N)C(O)C(C)O1 (stereo not given in full),growth,A549/ATCC NSCLC; runs of 1995,"active: 6.05, 7.09, 2.13, 3.9, 1.6, -17.4, 8.65, -1.22, -4.4, 6.15, 2.09, 6.74, 5.61, 6.6, 2.18, 0.937, 7.8, -24.4, -2.31, -6.33, 2.31, 9.76, 5.42, 1.8, 6.86, 8.12, 3.06, 6.16, 6.94, 3.44, 2.26, 6.67% and inactive: 54.8, 12.3, 11.5, 16.9, 10.7, 11.3, 11.9%"
same,growth,A549/ATCC NSCLC; runs of 1996,"active: 5.85, 8.32, -2.23, 5.33, 7.77, 6.43, -19.2, -21.5, 4.71, -22.9, 5.05, 7.74, 3.07, 6.52, -11.4, 9.7, 5.21, 7.03, -16.4, 0.847, -19.5, 6.7, 8.26, 7.55, 2.84, 8.84, 6.4, 6.95, 1.9, 6.46, -17.7, 6.41, 0, -5.69, 0.359, 8.01, 5.73, 5.87, -41.8, 7.54% and inactive: 12.2, 10.5, 10.7, 13.4, 15.5, 10.2, 12.5, 12.3, 15.6%"
same,growth,A549/ATCC NSCLC; runs of 1997,"active: 8.53, -3.31, 1.25, 6.03, 8.72, 0.802, 9.35, 6.99, 3.81, 3, 9.37, -4.84, -25.5, 2.55, 1.46, -25.2, 4.64, 3.33, 1.15, 1.56, 2.64, 6, 1.1, 7.74, -14.9, 6.67, 4.03, -20.7, 2.99, -42, 1.66, 3.26, 2.9, -5.02, 6.35, 3.93, 3.2, 2.12, 9.04, -9.47% and inactive: 13.1, 13.6, 97.9, 12.4, 10.9, 20.3%"
same,growth,A549/ATCC NSCLC; runs of 1998,"active: -41, -1.09, 7.37, -9.22, 5.38, 9.23, 0, 6.5, -7.9, -48.4, 5.75, -33.9, 2.54, -29.2, 3.57, -2.1, -11.5, -19.1, 3.71, -3.8, -20.9, 1.52, -8.73, -25.3, 0.803% and inactive: 13.7%"
same,growth,A549/ATCC NSCLC; runs of 1999,"active: 0.966, 2.64, -4.18, 2.03, -7.99, -37.2, -81.8, -28.3, -14, 0.277, 3.11, -16.9, -100, -64, -60.2% and inactive: 30.9%"
same,growth,A549/ATCC NSCLC; runs of 2000,"active: 0.543, -100, -19.3, -49.2%"
same,growth,COLO 205 colon; runs of 2006,"inactive: 42.2%, 35.3%"
same,growth,COLO 205 colon; runs of 2007,"inactive: 43.7 (2×), 55.6 (2×), 47.4, 45.2, 50, 48.4, 58.8, 49.5, 68.6, 54.9, 50.7, 49.8 (2×), 57.2, 46.7, 32.4, 51.5 (2×), 55, 56.9, 90.9, 39.8, 49.6, 54.2, 58.6, 70, 53.8, 54.5, 55.4 (2×), 51.4, 44.9, 35.4, 40.2, 36.9, 36.3, 66.9% and active: -17.1%"
same,growth,COLO 205 colon; runs of 2008,"inactive: 51.8 (2×), 59.1, 45.6, 39.1, 71.4, 57.4, 59.2, 60.9, 51.6, 49.2, 58.2 (3×), 40.7, 41.1, 41.4, 35.3, 28.3, 33, 48.5, 41.2, 34, 50.4, 49.5, 113, 47.2, 40.2, 52.7, 33.2, 69.9, 30.4, 56.9, 56.1, 49.6, 53.6, 46, 65.9, 64.9, 46.3, 48.4, 60.7, 65.4, 68.3, 41, 43, 56.7, 28.7, 51.1, 46.6, 48.6, 43.7%"
same,growth,COLO 205 colon; runs of 2009,"inactive: 57.3, 62.2, 43.4, 43.1, 35.1, 43.7, 53.2, 66.6, 58.4, 53, 55.2 (2×), 66.3, 49.4, 59.5, 53.8 (2×), 54.1 (2×), 32.3, 25.1, 48.3, 49.2, 51.2, 36, 43.8, 59.7 (2×), 50.2, 51.8, 39.3, 42.8, 57.7 (3×), 50 (2×), 51.4, 75.1, 58.1, 34.9, 53.7, 46.9 (2×), 40.9, 48.4, 46.2, 44.3, 54.6, 59.2 (2×), 56, 57.8, 52.9, 69.6, 51.3, 47.4, 51.9, 43.3, 46.5, 44.7%"
same,growth,COLO 205 colon; runs of 2010,"inactive: 57.2, 58.2, 57.7, 42.4, 54, 55.2 (2×), 51.8, 48.7 (2×), 64.3, 50.2 (2×), 53.2, 51.9 (2×), 57.8, 49.8, 46.1, 55.9, 41.3, 52.8, 53.6 (2×), 44.3, 43.7, 50, 41.4, 53 (2×), 44.1, 51.5, 39, 62.1, 54.5, 48.6, 59, 52.9, 47.5, 45.6, 48.9, 55.4, 51.4, 52.7, 53.5, 45.5, 60.9, 61.3, 54.4, 57.4, 61.4%"
same,growth,COLO 205 colon; runs of 2011,"inactive: 51.4, 49.8, 51.3, 51.8, 57.6, 48.8, 46.9, 46.5, 54.4, 52.9, 55.9, 60 (2×), 55.6, 28, 55.7 (2×), 72.5, 58.3, 55, 60.9, 58.7, 61.7, 57.3 (2×), 56.5, 53.2, 63.4, 53.3, 31.5, 48.4, 43.1, 47.3, 37.1 (2×), 50.1, 50, 42.3, 52, 44.4, 39.3, 59.6, 42.6, 36.9, 45.1, 61.8, 62.7, 60.3, 48.5, 43, 46.4, 49.5, 60.5, 58.5, 53.8%"
same,growth,COLO 205 colon; runs of 2012,"inactive: 48.8 (3×), 38.7, 42.3 (2×), 44.2 (2×), 60.2 (2×), 51.8, 53.1, 56.2 (2×), 57.9 (2×), 47.9, 51.2 (2×), 46.9, 46 (3×), 37.3, 32.9, 39.1, 48 (2×), 51.3, 43.2, 52.7, 50.5, 46.2, 53, 48.3, 56.5, 53.3, 47.5, 59.7, 51.4, 45.1, 56.9 (2×), 65.5, 59.4, 52.6, 52, 61.3, 68.9, 56, 55.4, 65.2, 70.8, 50.4, 39.8, 62.1, 55.6, 52.3, 57.4, 51, 40.2, 42.8, 58.1, 46.6, 34.2, 36.4, 46.4, 39.5%"
same,growth,COLO 205 colon; runs of 2013,"inactive: 41.5, 48.6, 39.4, 40.4, 62.8, 58.7, 52, 53.7, 53, 58.4, 54.6, 49.6 (2×), 56.8 (2×), 65.4 (2×), 49.5, 50.7 (2×), 50.2 (2×), 51.5, 60.1 (3×), 59.8 (2×), 66.2, 56.5, 63.4 (2×), 57.5, 68.9, 71.2, 64.1, 66.7, 51.6, 61, 59, 52.6, 63.5, 55.4 (2×), 56.7, 61.5, 58.9 (2×), 52.9, 55.6, 63.9, 47.5, 44.6, 51, 41.7, 51.4, 54.2, 59.6, 66.1, 55.7, 53.2 (2×), 57.2, 39.1, 40.7, 41.1, 42.5, 43.1, 42.6, 49.7, 53.8, 54.1, 58.6, 47.3, 54.5, 38.9, 47.1, 47.2, 51.3, 46%"
same,growth,COLO 205 colon; runs of 2014,"inactive: 51.6, 62.5, 43, 37.4, 35.5, 45.5 (4×), 53.2, 39, 37.2 (3×), 32.9, 30.1, 55, 27.9, 47.4 (2×), 37.6 (2×), 35.7, 38.5 (2×), 47.5 (4×), 56.1, 40.6, 42, 46.1, 47.6 (2×), 46.6, 50.2, 44.4, 42.2, 51.3, 51.9, 44.8 (2×), 47.3, 55.2, 55.6 (2×), 49.8, 51.2, 51, 57, 55.7, 48.2, 48.4 (2×), 46.3 (2×), 46.4, 57.2, 42.1 (2×), 33.4, 40.7, 44.2, 40, 38, 39.5, 43.1 (2×), 42.3, 46.2, 36.8, 48.6 (2×), 48.3, 43.8, 37.3, 38.2, 34.3, 40.8, 35.8%"
